Experimental data: PubChem BioAssay AID662 (National Center for Advancing Translational Sciences (NCATS), 2007)
About 1,800 (2.5%) of roughly 71,000 compounds were called active. This list was built around the results that the source calls inconclusive (neither active nor inactive); the mix of calls is not that of the screen. Calls come from the whole dose curve; as a rule, active = well fitted activation curve with a large enough effect in the signal ratio, with a control signal flat (not every such curve was filed as active); inconclusive = small, poorly fitted or top-dose-only effect, or effect the other way, or a change in a side signal; inactive = flat fitted curve, though single readings scatter; the % refers to the signal ratio. Where the call is inconclusive, the potency comes from a doubtful curve fit.

Assay: Cell signaling CRE-BLA (Fsk stim); for activity change, negative = inhibition: % of control where 0% means no effect
Conditions: CHO CRE-bla reporter (cAMP response element driving beta-lactamase), forskolin EC10, beta-lactamase ratio; activity change, negative = inhibition: at 38.2 µM (top of the series) unless noted
Outline: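 CRE-bla CHO reporter cells treated with compound titration plus EC10 NKH 477 (water-soluble forskolin), incubated 3 h at 37 °C; CCF4 loading 2 h at room temperature, 460/530 nm emission ratio read, AC50 values derived for positive or negative modulators.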
Potency is the fitted concentration of half-maximal effect; tags give direction and shape of the fitted curve.

Compound	activity change, negative = inhibition	Potency
O=C(COc1ccc2ccccc2c1Br)N1CCOCC1	inconclusive: -2.31%	
COCCN(CCOC)c1cc(C)c(C#N)c2nc3ccccc3n12		inconclusive: 12.6 µM [rising, partial curve]
COCC(C)NC(=O)c1ccc(N(C)C)cc1 (stereo not drawn)	inconclusive: 30.9% [at 7.6 µM]	
N#Cc1c(N2CCCC2)nc(N)c2c(N)nc(N3CCCC3)cc12		inconclusive: 3.16 µM [rising, single point]
CC(=O)Nc1cc2nn(-c3ccccc3)nc2cc1Cl	inactive	
CS(=O)(=O)N(CCc1ccccc1)CC(=O)NCc1cccnc1	inactive	
O=C(O)c1cc(S(=O)(=O)N2CCCCCC2)c(Cl)cc1Cl	inconclusive: -1.46% [at 7.6 µM]	
COc1ccc(F)cc1S(=O)(=O)n1cc(C)nc1-c1ccccc1	inactive	
Cc1nnc(SCC(=O)n2c3c(c4ccccc42)CCCC3)s1	inactive	
CCN(CC)c1ccc(-c2nc3cnccc3n2C)cc1	inconclusive: 27%	
O=c1nc2s/c(=C\c3ccco3)c(=O)n2nc1Cc1ccc(F)cc1	inactive	
O=C(NCc1ccccn1)c1ccc(Br)s1	inconclusive: -0.481%	
Cc1sc2nc(CSc3nnc(Cc4cccs4)n3C3CCCCC3)[nH]c(=O)c2c1C		inconclusive: 15.8 µM [rising, single point]
CC(=O)NCCNc1nc(-c2cccc(C#N)c2)nc2ccccc12		active: 12.6 µM
CC(C(=O)N1c2ccccc2Sc2ccccc21)n1nnc(-c2cccs2)n1 (stereo not drawn)	inconclusive: -7.55%	
Cc1cc(OCc2nn[nH]n2)c2c(-c3ccccc3)cc(=O)oc2c1	inactive	
CC1(C)Cc2nc(N3CCOCC3)c(C#N)cc2CO1	inconclusive: 11.6%	
CC(=O)Nc1ccc(SCC(=O)OCC(=O)NC(=O)NCc2ccco2)cc1		inconclusive: 3.98 µM [falling, single point]
CC(C)C[C@@H](CC(=O)N[C@@H](CCC(=O)O)CC(=O)O)NC(=O)[C@@H]1CNCC[C@H]1NC(=O)C[C@H](CCCN)NC(=O)C[C@H](Cc1c[nH]c2ccccc12)NC(=O)[C@@H]1CNCC[C@H]1N	inactive	
CCCc1cc(=O)oc2cc(C)cc(OCc3nn[nH]n3)c12	inactive	
CCn1c(NC(=O)c2cccs2)nc2ccccc21		inconclusive: 20 µM [falling, partial curve]
CCOc1ccc(-c2nc(C#N)c(N3CCN(C)CC3)o2)cc1	inactive	
N#C[C@H](c1ccccc1)N1CCCN([C@@H](C#N)c2ccccc2)C1c1ccccc1O (stereo partly drawn)	inactive: -8.74% [at 7.6 µM]	
